# Experimental data taken from PubChem BioAssay (NCI).
#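 Method: 48-hour compound exposure of cells in 96-well plates, five concentrations, linear interpolation of endpoints. GI50 marks 50% less growth. TGI marks complete inhibition of growth.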 Peptide text beside a SMILES is read from it.
# Tested on: NCI-H322M lung
# Experiment: NCI tumour cell line growth inhibition, 48 h
SMILES,TGI [µM],GI50 [µM]
NS(=O)(=O)c1ccc(NCc2nc3ccccc3[nH]2)cc1,> 100,
C=C1CC(O)C2C(=C)C(=O)OC2C2C(C)C(=O)CC12 (configuration not stated),> 100,
COc1ccc(/N=N/C(=NNC(=O)c2ccc(C)cc2)c2ccc(N(C)C)cc2)cc1,> 100,
CCCCOP1(=O)CC(C)=C(Cl)C(C)(OC)C1 (configuration not stated),> 100,
Nc1ccc(C(=O)O)cc1,> 100,
COc1cccc(N(CN2C(=O)CCC2OC)C(C)=O)c1 (configuration not stated),> 100,
COc1cc(CCc2ccncc2)cc(OC)c1OC,> 100,
CSc1nc(-c2ccccc2)nc(=[N+]2CCOCC2)s1,> 100,
CC(=O)OC1=C(CC(C)(C)C)C(=O)c2ccccc2C1=O,> 100,
CCN(CC)C(=O)c1cc([N+](=O)[O-])c(=O)n2c1[nH]c1ccccc12,> 100,
COC(=O)C(/C(=N\O)C(=O)Nc1ccc(Br)cc1)c1nc2ccccc2[nH]c1=O (configuration not stated),> 100,
CNc1nc(-c2ccc3c(N)n[nH]c3c2)cc(N2C[C@@H](C(=O)NC3CCCCC3)CC[C@H]2C)n1,19.3,4.95
N#CC(C#N)C(c1ccccc1)c1ccccc1,> 100,
Cn1cc(-c2csc(-c3cn(C(=O)OC(C)(C)C)c4ccccc34)n2)c2cccnc21,38.7,14.3
O=C(Cn1c(=O)oc2ccc(C(=O)c3cccc(Cl)c3)cc21)c1ccccc1,> 100,
CCCCCCCCCCCCCCCCCCNc1nc(=O)n(C2CC(OP(=O)(O)OCC3OC(n4cc(F)c(=O)[nH]c4=O)CC3O)C(CO)O2)cc1F (configuration not stated),> 100,
COc1ccc(C2=Nc3c(nc(SC)[nH]c3=O)NC(c3ccccc3)C2)cc1 (configuration not stated),> 100,
Cc1cc(OCc2nnc3n2N=C(c2cc(F)c(Cl)cc2Cl)/C(=C/c2ccc(-c4ccc(Cl)cc4)o2)S3)ccc1Cl,> 50,
COc1cc([C@@H]2c3cc4c(cc3[C@@H](NCc3cccc(F)c3)C3COC(=O)[C@@H]32)OCO4)cc(OC)c1O (some centres not stated),> 65,
O=C1c2cc3ncsc3cc2C(=O)c2c(O)ccc(O)c21,> 100,
NNS(=O)(=O)c1ccc(/C=C2\NC(=O)NC2=O)cc1,> 100,
Cc1oc2nc(N(C)C)n3cnnc3c2c1C,> 100,
COc1cc2c(=O)n(CC3CCCCC3)c3c4cc[nH]c4ncc3c2cc1OC,> 50,6.87
CCCC(=O)OC(OC(=O)CCC)c1ccc([N+](=O)[O-])o1,> 100,
COC1CC(n2cc(F)c(N)nc2=O)OC1CO (configuration not stated),> 100,
COC(=O)/C=C\C(C#N)(C#N)N=Cc1ccc(Br)cc1,33.8,
CN1CCN(c2nc3cc(F)ccc3n3cccc23)CC1,> 100,

SMILES,TGI [µM],GI50 [µM]
Cc1ccc(C(=O)N/N=C(\N=Nc2ccccc2C(=O)O)c2ccc(N(C)C)cc2)cc1,> 100,
COc1ccc(/C=C/C(=O)c2ccc(Nc3nc(Nc4ccc(F)cc4)nc(Nc4ccc(F)cc4)n3)cc2)cc1,> 100,14.5
C[C@@H]1Cc2c(ccc3[nH]ncc23)[C@@H](c2ccc(NC3CN(CCCF)C3)cn2)N1CC(F)(F)F,> 100,35.9
CC(C)(CO)CNc1cc(Cl)nc(N)n1,> 100,
COc1ccc(F)cc1-c1ccnc2[nH]c(C3=CCN(C4CCC(CC(=O)O)CC4)CC3)cc12 (configuration not stated),> 100,0.287
O=C(/C=C/c1ccc(Cl)cc1Cl)c1ccc(Cl)cc1Cl,> 89.8,39.6
Cc1cc(OCC(O)CO)ccc1Cl (configuration not stated),> 100,
CC1C(c2ccccc2)NC(c2ccccc2)CC1(N)C#N (configuration not stated),> 100,
CC(C)(NC(=O)C(C)(C)NC(=O)OCc1ccccc1)C(=O)O (HELM PEPTIDE1{[O=C(OCc1ccccc1)[*:2]].[Aib].[Aib]}$$$$V2.0),> 100,
CC1=NN2CCC(=O)N=C2S1,> 100,
COC(=O)Nc1nc2ccc(C(=O)c3cccs3)cc2[nH]1,> 100,> 100
CCCCOc1ccc(S(=O)(=O)/N=C(\NO)Nc2ccc(Cl)cc2)cc1,29.6,
O=C1C(OC(=O)c2ccccc2)=C(c2ccc(O)cc2)C(=O)C(OC(=O)c2ccccc2)=C1c1ccc(O)cc1,> 100,
CC1=CC(=O)N2C(OC[C@@H]2c2ccccc2)O1 (some centres not stated),> 100,
CC1/C(=N/O)CC(c2ccccc2)N(N=O)C1c1ccccc1 (configuration not stated),> 100,
COC(=O)C(CNC(=O)/C=C/c1ccc(OC(C)=O)c(OC(C)=O)c1)NC(=O)/C=C/c1ccc(OC(C)=O)c(OC(C)=O)c1 (configuration not stated),> 100,
CNC(=O)c1cc(-c2ccc(F)cc2)cc(-c2ccc(S(=O)(=O)N3CCCC3)cc2)c1N,> 25,> 25
CC1=NN(c2nc(N)nc(-c3cc4ccccc4oc3=N)n2)C(C)(C)C1,42.7,
Cc1nc2sc(C(=O)Nc3ccccc3)c(N)c2cc1C(=O)c1ccccc1,> 50,3.89
CN1C/C(=C\c2cccs2)C(=O)/C(=C/c2cccs2)C1,68.2,
N/C(CC(=O)NOC(=O)c1ccccc1)=N/OC(=O)c1ccccc1,> 100,
CC(=O)c1c(O)cc(O)c(-c2c(C)cc(O)c3c2C(=O)c2cccc(O)c2C3=O)c1O,28.4,
C=C1C(=O)OC2(C)CCC1CC1OC1(C)CCC=C(C)CCC2O (configuration not stated),> 100,
CCOC(=O)CCC(NC(=O)c1ccc(Nc2nc3ccccc3nc2C(=O)OCC)s1)C(=O)OCC (configuration not stated),> 100,
NC(=S)NS(=O)(=O)c1ccc(Cl)cc1,> 100,
CC(=O)[O][Hg][c]1s[c]([Hg][O]C(C)=O)[c]([Hg][O]C(C)=O)[c]1[Hg][O]C(C)=O,27.4,13.3
COc1ccc(/C=C(/c2ccc(OC)cc2)c2c(Cl)cc(Cl)c(/C(=C\c3ccc(OC)cc3)c3ccc(OC)cc3)c2N=Nc2ccccc2)cc1,> 100,

SMILES,TGI [µM],GI50 [µM]
C[C@@H](C[C@H](CCO)c1ccccc1)c1ccc2ccccc2c1,2.99,1.62
COC(=N)CCCl,> 100,
O=C1CC2OCC=C3CN4CCC5(C(=O)O)C(N1)C2C3CC45 (configuration not stated),> 100,
CN(C)C(=S)/N=c1\ss/c(=N\S(=O)(=O)c2ccccc2)n1C,> 100,
CC1(C2CCC3(C)C(C2)C3Sc2ccccc2)OCCO1 (configuration not stated),87.4,
N#Cc1cc2c(cc1Cl)SC(=Nc1ccccc1)N(S(=O)(=O)c1ccc(Br)s1)S2(=O)=O,62.5,26.1
Nc1ncc2c(n1)-c1ccccc1OC2,> 100,
Cc1c(Cl)cccc1NC(=O)C(=O)c1c(O)c2ccc(O)cc2oc1=O,> 100,
Fc1ccc2c(c1)nc1n2C(c2c(F)cccc2F)SC1 (configuration not stated),> 100,
N#Cc1c(N2CCCC2)nsc1Nc1ccccc1,> 100,
COC(=O)C(=O)C(C#N)c1c(Cl)cccc1Cl (configuration not stated),> 100,
CC(C)=CCC[C@@H](C)C1=C(O)C(Nc2ccccc2)=C(C)C(=O)C1=O,> 100,
CCCCCCCCCCOc1ccc(N=Nc2nnc(-c3ccc(OCCCCC)cc3)s2)cc1,> 100,
OCC(S)CS.[Bi] (configuration not stated),40.5,
Cc1ccc(C)c(NC(=O)C(=O)Nn2c(=S)[nH]c3ccccc3c2=O)c1,> 100,
CSc1c(C)n([O-])c2cc(Cl)c(Cl)cc2[n+]1=O,65.3,
Cc1c2ccccc2c(C)n2c1nc1cc(Cl)c(Cl)cc12,> 100,> 100
CCN(CC)CCNc1ccc([N+](=O)[O-])c2nc3ccc(OC)cc3c(N)c12,2.72,
CC1=C(SCCC(=O)OC(C[Se]C2=C(C)C(=O)c3ccccc3C2=O)C(=O)NC(C)(C)C)C(=O)c2ccccc2C1=O (configuration not stated),1.35,0.326
NC1=C(O)C(=O)C(c2c[nH]c3ccc(OCc4ccccc4)cc23)O1 (configuration not stated),> 100,
Cc1ccc(C)c2c1n1c(=O)n(C)c(=O)n21,> 100,
COC(=O)C#CC(N)=O,> 100,
CN1C/C(=C\c2ccc(C(=O)O)cc2)C(=O)/C(=C/c2ccc(C(=O)O)cc2)C1,> 100,
CCC(C)N1CN(c2ccccc2)C2(CCN(CCCC3(c4ccc(F)cc4)OCCO3)CC2)C1=O (configuration not stated),33.2,
C1CC[N-]CC1.CC(=N\O)/C(C)=N/O.CC(=N\O)/C(C)=N/O.C[CH-]C(C)O.[Co+2],> 100,55.7
C/C(=N\Nc1n[nH]c(=S)n1N)c1c(O)cc(C)oc1=O,> 100,
CCCCCCCCc1cc(O)ccc1O,41.2,18.3

SMILES,TGI [µM],GI50 [µM]
COc1ccc2c(c1)[nH]c1c3ccc(OC)cc3oc(=O)c21,> 100,
ClC1=C(Cl)C2OC3C=CCC3OC2C(Cl)=C1Cl (configuration not stated),> 100,
Cc1cc(S(=O)(=O)Nc2n[nH]c(Nc3ccccc3)n2)c(SSc2cc(Cl)c(C)cc2S(=O)(=O)Nc2n[nH]c(Nc3ccccc3)n2)cc1Cl,> 100,
O=C1/C(=C/c2ccc(O)cc2)Oc2ccccc21,> 100,
O=S(=O)(Nc1ccc(Cl)c(Cl)c1)c1ccc(-c2cnc(C3CC3)o2)cc1,27.3,4.66
COc1cc(-c2nc(SC)nc3c2CCc2ccccc2-3)cc(OC)c1OC,> 100,
Nc1ccn(C2CC3OCC3O2)c(=O)n1 (configuration not stated),> 100,
Nc1ccn(CC(O)c2cc3ccccc3[nH]2)c(=O)n1 (configuration not stated),> 100,
CC(=O)/C(=C/N1CCN(C(=O)c2ccco2)C1=S)C(=O)c1ccccc1,> 50,27.9
CN(C)Cc1cc(C(C)(C)C)cc(CN(C)C)c1O,> 100,
N#C/C(=C1\OC(N)=C(c2ccc(Cl)cc2)C1=O)c1ccc(Cl)cc1,42.7,
CCOC(=O)Cc1cc(=O)[nH]c(-n2[nH]c(C)c(CCO)c2=O)n1,> 100,
COC(=O)c1cc(C)[nH]c2c(C)cc3nc4ccccc4c3c12,31.4,16.5
COc1ccc(C2NC(N)=C(C#N)C3=C2C(C)CCC3)cc1OC (configuration not stated),> 100,
Cc1ccc2c(c1)Nc1ccccc1P2(=O)O,> 100,
CSc1nc2ccc(C)cc2cc1/C=C1/C=C(c2ccccc2)NC1=O,> 100,5.94
CC(C)OP(=O)(OC(C)C)/C(C#N)=C/c1c[nH]c2ccccc12,> 100,
CCc1n[nH]c(=O)[nH]1,> 100,
COC(=O)[C@@H](C)C[C@H](Cc1ccccc1)NC(=O)c1csc([C@@H](C[C@H](C(C)C)N(C)C(=O)[C@@H](NC(=O)[C@H]2CCCCN2C)C(C(F)(F)F)C(F)(F)F)OC(C)=O)n1,> 16.7,0.0745
COc1ccc(/C=C2\OC(=O)C(Cl)=C2c2ccc(OC)c(Cl)c2)cc1,> 100,
Cc1c(C2CCSc3ccccc3N2)sc2ccccc12 (configuration not stated),> 100,
C=C(Cl)CN1c2ccccc2C=Cc2ccccc21,> 100,
CCCCCC/C(CC(=O)CCC(=O)NCCc1ccccc1)=N\Nc1ccc([N+](=O)[O-])cc1[N+](=O)[O-],> 100,
Cc1nccn1S(=O)(=O)c1ccc(Cl)cc1,> 100,
